# Laboratory results reported in PubChem BioAssay AID504706 (National Center for Advancing Translational Sciences (NCATS), 2011).
# Screen size: about 320,000 compounds; about 200 (0.062%) were called active. Inconclusive means that the source gave no clear call. Such entries were picked first, then a sample of the others. Calls come from the whole dose curve; as a rule, active = well fitted activation curve with a large enough effect; inconclusive = small, poorly fitted or top-dose-only effect; inactive = no such curve, though single readings can be large or run the other way. Potencies of inconclusive entries are left out as doubtful fits.
# Test: qHTS assay for re-activators of p53 using a Luc reporter; note: nearly all actives have a fitted effect of over 45% in size
# Conditions: H1299 p53-A138V BP100-luciferase reporter, luminescence, 24 h; series mostly up to 92.2 µM
# How it was run: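 H1299 (p53-null), stable ts p53-A138V + BP100-Luc; 1000 cells/well, Opti-MEM/10% FBS; cpd 4 pt, 1:5; 24 h, 37 deg C, 5% CO2; detection reagent 10 min RT; luminescence.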
# Potency is the fitted concentration of half-maximal effect; tags give direction and shape of the fitted curve.
row,Compound,Potency
1,CC(C)C(=O)Nc1ccc(O)c(-c2csc(N)n2)c1,inactive
2,C=C(C)C(=O)Nc1cccc(C2=NOC3(C2)C[C@@H](C(N)=O)N(C(=O)CC(c2ccccc2)c2ccccc2)C3)c1 (some centres not stated),inactive
3,CNC(=O)c1[nH]cnc1C(=O)Nc1ccc(F)cc1,inactive
4,O=C(Nc1ccc(-c2nc3ccccc3[nH]2)cc1)c1ccccc1NS(=O)(=O)c1ccc(F)cc1,inactive
5,CC1CCC(NC(=O)c2ccc(/C=C3\Oc4ccccc4N(C)C3=O)cc2)CC1 (configuration not stated),"inconclusive [activator, full curve, poor fit]"
6,Cc1c(C(=O)Nc2ccccn2)oc2ccc(Br)cc12,"inconclusive [activator, partial curve, poor fit]"
7,COc1ccc(OC)c(-n2c(=O)c3ccccc3c3ccccc3c2=O)c1,"inconclusive [activator, single point]"
8,CC1CCN(c2ccc(C(=O)NCc3cccs3)cn2)CC1,"inconclusive [activator, partial curve, poor fit]"
9,CC(C)c1csc(CN2CCCC(CNC(=O)c3cccc4ccccc34)C2)n1 (configuration not stated),inactive
10,CCn1c(=N)n(CCOc2ccc(OC)cc2)c2ccccc21,"inconclusive [activator, partial curve, poor fit]"
11,NC(=O)c1ccccc1N/C=C/C(=O)c1cccs1,"inconclusive [activator, partial curve, poor fit]"
12,CCN(CC)C(=O)c1cc2sc3ccccc3c2s1,"inconclusive [activator, full curve, poor fit]"
13,Cc1csc(NC(=O)c2cccc(C)c2C)n1,"inconclusive [activator, partial curve, poor fit]"
14,O=C(CSc1nc2ccccc2[nH]1)Nc1ccc2c(c1)OCCO2,"inconclusive [activator, single point]"
15,Cc1cc(N2CCOCC2)nc2cc(O)ccc12,"inconclusive [activator, partial curve, poor fit]"
16,COc1ccccc1C(=O)NC(=S)Nc1ccccc1N1CCCCC1,"inconclusive [activator, single point]"
17,CCc1nn2c(=O)cc(COc3cccc(NC(=O)c4ccco4)c3)nc2s1,inactive
18,O=c1c(Cl)c(N2CCN(c3ccc(F)cc3)CC2)cnn1-c1nc2ccccc2s1,"inconclusive [activator, partial curve, poor fit]"
19,CN(C)CCNC(=O)c1ccc2c(c1)N(Cc1ccc(F)cc1)CCS2,"inconclusive [activator, single point]"
20,CC(C)(C)c1ccc(-c2nnc(SCC(=O)NC3CC3)o2)cc1,"inconclusive [activator, full curve, poor fit]"
21,CC1CCCC2(C1)NC(=S)c1c(sc3c1CCCC3)N2 (configuration not stated),inactive
22,Cc1cc(C)c2nc(/N=C(\N)NC(=O)c3ccccc3)nc(C)c2c1,inactive
23,COc1cccc(-c2noc(-c3ccoc3C)n2)c1,"inconclusive [activator, partial curve, poor fit]"

row,Compound,Potency
1,CN(CC(=O)Nc1ccccc1Br)Cc1nc2ccccc2c(=O)[nH]1,inactive
2,O=[N+]([O-])c1cc(/C=N/N2CCOCC2)cs1,"inconclusive [activator, partial curve, poor fit]"
3,COc1ccc(/C(C)=N/NC(=O)c2nc(C)cc(C)n2)cc1,"inconclusive [activator, partial curve, poor fit]"
4,O=C(CN1C(=O)c2ccc([N+](=O)[O-])cc2C1=O)NC1CCS(=O)(=O)C1 (configuration not stated),inactive
5,Cc1cc(C)c(C(N)=O)c(Nc2cccc(Cl)c2)n1,"inconclusive [activator, single point]"
6,O=C(NCc1ccco1)c1cnn2c1NC(c1ccccc1)CC2C(F)(F)F (configuration not stated),inactive
7,CCCCN1CCc2c(c3ccccc3n2Cc2ccccc2)C1,inactive
8,CCOC(=O)CSc1nc(-c2ccccc2)nc2ccc(F)cc12,"inconclusive [activator, single point]"
9,COc1cccc(N/C=C/C(=O)c2ccc(C)cc2)c1,inactive
10,O=[N+]([O-])c1cccc(N(CC(O)CN2CCCC2)S(=O)(=O)c2ccccc2)c1 (configuration not stated),"inconclusive [activator, partial curve, poor fit]"
11,COc1ccc(C2=Nn3c(nnc3-c3ccccc3OC)SC2)cc1OC1CCCC1,"inconclusive [activator, single point]"
12,CC1=CCC(COC(=O)Nc2ccccc2)CC1 (configuration not stated),"inconclusive [activator, partial curve, poor fit]"
13,COc1cc(/C=N/OCC(=O)Nc2cc(C)cc(C)c2)ccc1OCc1ccc(Cl)cc1,"inconclusive [activator, partial curve, poor fit]"
14,CCOC(=O)c1ccc(N/C=C\C(=O)c2cccc(OC)c2)cc1,"inconclusive [activator, partial curve, poor fit]"
15,C/C(=N\Nc1ccc2nncn2n1)c1ccc(Cl)s1,inactive
16,Cc1ccc2c(c1)c1ncnc(N3CCOCC3)c1n2C,"inconclusive [activator, single point]"
17,Nc1nc2ccccc2n1CCOc1ccc(F)cc1,"inconclusive [activator, single point]"
18,O=C(CCc1nc2ccccc2c(=O)[nH]1)Nc1nnc(SCc2ccccc2F)s1,"inconclusive [activator, partial curve, poor fit]"
19,CCN1CCC(C(=O)NC2CCCC2)(N(Cc2cccs2)C(=O)Cn2nnc3ccccc32)CC1,"inconclusive [activator, single point]"
20,Cc1ccc(S(=O)(=O)N(C)C)cc1NC(=O)COC(=O)/C=C/c1ccc2ccccc2n1,"inconclusive [activator, partial curve, poor fit]"
21,CC(Sc1nc(N)cc(=O)[nH]1)C(=O)NNC(=O)c1cccc(Cl)c1 (configuration not stated),"inconclusive [activator, partial curve, poor fit]"
22,CCS(=O)(=O)N1Cc2ccccc2CC1C(=O)Nc1nc2ccccc2s1 (configuration not stated),"inconclusive [activator, full curve, poor fit]"
23,CCOC(=O)N1CCN(S(=O)(=O)c2ccc(C(=O)N(CCN(CC)CC)c3nc4ccc(C)cc4s3)cc2)CC1,"inconclusive [activator, partial curve, poor fit]"

row,Compound,Potency
1,CC(=O)Nc1ccc(S(=O)(=O)N2CCN(c3cc(C)nc4ccccc34)CC2)cc1,inactive
2,Cc1ccc2nc(NC(=O)CSc3nc(=O)n(CCN(C)C)c4c3CCCC4)sc2c1,"inconclusive [activator, single point]"
3,CC(=O)c1cccc(NC(=S)NCCC2=CCCCC2)c1,"inconclusive [activator, partial curve, poor fit]"
4,COC(=O)[C@@]12CCCN1[C@H](c1ccc(-c3ccc(C(C)=O)cc3)c(OC)c1)[C@H]1C(=O)N(C)C(=O)[C@H]12,inactive
5,C=CCSc1nnc(NC(=O)C23CC4CC(CC(NC(C)=O)(C4)C2)C3)s1,inactive
6,O=C(NCc1ccc(F)cc1)c1cnn2ccccc12,"inconclusive [activator, full curve, poor fit]"
7,Cc1csc(NC(=O)c2ccoc2C)n1,"inconclusive [activator, partial curve, poor fit]"
8,Cc1cccc(C)c1NC(=O)c1c[nH]c2ccccc12,"inconclusive [activator, full curve, poor fit]"
9,Cc1cccc(-n2nnc(C(=O)Nc3ccc(F)cc3)c2N)c1,"inconclusive [activator, full curve, poor fit]"
10,Cc1ccc(Nc2nc3ccccc3[nH]2)nc1,"inconclusive [activator, partial curve, poor fit]"
11,Cc1ccc2c(c1)C1CN(C)CCC1N2S(=O)(=O)c1ccc(C#N)cc1 (configuration not stated),"inconclusive [activator, full curve, poor fit]"
12,Cc1cc(C)n2nc(C(=O)Nc3ccc4c(c3)OCCO4)nc2n1,"inconclusive [activator, full curve, poor fit]"
13,COc1ccc(N2Nc3n[nH]c(N)c3N2)cc1,"inconclusive [activator, partial curve, poor fit]"
14,Cc1c(C(=O)O)cccc1-n1c(C)cc(/C=N/NC(=O)c2cc3ccccc3o2)c1C,"inconclusive [activator, single point]"
15,O=C(c1ccc2c3c(cccc13)CC2)C1CCCN(Cc2ccccn2)C1 (configuration not stated),inactive
16,COC(=O)CSc1nc(C)c2ccc(OC)cc2n1,"inconclusive [activator, single point]"
17,Nc1nonc1-n1nnc(C(=O)N/N=C/c2ccc(OCc3ccccc3)cc2)c1COc1ccc(F)cc1,inactive
18,CCCc1cc(=O)[nH]c(SCC(=O)N2CCc3ccccc3C2)n1,inactive
19,NC(=O)c1ccccc1NC(=O)/C=C/c1ccccc1,"inconclusive [activator, partial curve, poor fit]"
20,O=c1oc(-c2cccs2)nc2sc3c(c12)CCCCC3,"inconclusive [activator, single point]"
21,CCCn1nc(NC(=O)c2cccs2)c2cc3ccccc3nc21,inactive
